Here are results for 31 molecules from the antibiotic and cytotoxicity screens of Wong et al. (2023).

SMILES strings stand for the structures. This is one part of the list.

This assay relates to S. aureus RN4220. Nature of the assay: growth inhibition call (relative growth <= 0.2). The settings on record: 50 µM.
In the case of `COc1cccc(C#Cc2ccc3c(c2)O[C@H](CN(C)C(=O)c2ccccn2)[C@@H](C)CN([C@@H](C)CO)S3(=O)=O)c1`, the growth inhibition call was “inactive”.
With `N[C@H]1CCN(O)C1=O` the entry was “inactive”; with `C[C@@H]1CN([C@H](C)CO)C(=O)Cc2cc(NC(=O)Cc3cn(C)c4ccccc34)ccc2O[C@H]1CN(C)S(=O)(=O)c1cn(C)cn1`, “inactive”.
For `CCC(=O)N[C@@H]1CC[C@H](CC(=O)OC)O[C@@H]1CO` the value was “inactive”.
Regarding `C[C@H]1CN([C@@H](C)CO)C(=O)Cc2cc(NC(=O)C3CC3)ccc2O[C@H]1CN(C)C(=O)Nc1ccc2c(c1)OCO2`, the growth inhibition call is “inactive”.
With `C[C@H]1CN([C@@H](C)CO)C(=O)CCCn2cc(nn2)CO[C@H]1CN(C)C(=O)C1CC1` the entry was “inactive”; with `C[C@@H]1CN([C@H](C)CO)C(=O)c2cccc(NC(=O)c3nc4ccccc4s3)c2O[C@@H]1CN(C)CC1CCCCC1`, “inactive”.
For `Cc1noc(C)c1S(=O)(=O)N(C)C[C@H]1Oc2ccc(NC(=O)CCN3CCOCC3)cc2C(=O)N([C@H](C)CO)C[C@H]1C` the value was “inactive”.
For `CN(C)CCCNC(=O)C[C@@H]1CC[C@@H]2[C@H](COC[C@@H](O)CN2S(=O)(=O)c2ccc(Cl)cc2)O1` the value was “inactive”; for `O=C(O)CN1Cc2ccccc2C1=O`, “inactive”; for `C[C@@H]1CN([C@H](C)CO)C(=O)c2cccc(NC(=O)c3ccc(-c4nccs4)cc3)c2O[C@@H]1CN(C)C(=O)NC1CCCCC1`, “inactive”.
For `C[C@@H]1CN([C@@H](C)CO)C(=O)c2cccc(NC(=O)c3cnccn3)c2O[C@@H]1CN(C)Cc1ccc2c(c1)OCO2`, the growth inhibition call was “inactive”.
For `CCc1nc2ccc(C(=O)NCCCN3CCCC3=O)cn2c1N(CC)C(=O)NCCc1ccccc1` the value was “inactive”.
For `COc1cccc(NC(=O)N2C[C@H](O)COC[C@@H]3O[C@H](CC(=O)NCc4ccccc4F)CC[C@H]32)c1` the value was “inactive”; for `CN(C)C(=O)C[C@@H]1C=C[C@@H](NC(=O)C2CC2)[C@@H](CO)O1`, “inactive”; for `C[C@@H]1CCCCO[C@H](CN(C)C(=O)Nc2ccc(F)cc2)[C@H](C)CN([C@@H](C)CO)C(=O)c2cc(NC(=O)Cc3ccccc3)ccc2O1`, “inactive”.
For `COc1ccc(S(=O)(=O)N(C)C[C@@H]2OCCCC[C@@H](C)Oc3ccc(NC(=O)NC4CCCCC4)cc3C(=O)N([C@H](C)CO)C[C@H]2C)cc1`, the growth inhibition call was “inactive”.
With `COc1ccc(NC(=O)N[C@H]2CC[C@@H](CCNC(=O)CN3CCOCC3)O[C@H]2CO)cc1` the entry was “inactive”; with `O=c1c2ccccc2oc2ccccc12`, “inactive”; with `Nc1ccn2ccnc2c1`, “inactive”.
For `C[C@H](CO)N1C[C@H](C)[C@H](CN(C)S(=O)(=O)c2ccc(Cl)cc2)OCCCC[C@H](C)Oc2ccc(NC(=O)Nc3ccc(C(F)(F)F)cc3)cc2C1=O` the value was “inactive”.
For `COc1ccc(C#Cc2cnc3c(c2)C(=O)N([C@H](C)CO)C[C@H](C)[C@H](CN(C)C(=O)CN(C)C)O3)cc1` the value was “inactive”.
For the molecule `C[C@@H]1CN([C@H](C)CO)C(=O)c2cccc(NC(=O)c3ccc(-c4nccs4)cc3)c2O[C@H]1CN(C)S(C)(=O)=O`, the growth inhibition call was “inactive”.
Consider `COc1ccc2c3c([nH]c2c1)[C@H](CO)N(C[C@]13CN(CC2CCOCC2)C1)C(=O)Nc1c(noc1C)C`, for which the growth inhibition call is “inactive”.
For `C[C@H]1CN([C@@H](C)CO)C(=O)CCCn2nncc2CO[C@H]1CN(C)C(=O)Nc1ccc(N2CCN(C)CC2)cc1` the value was “inactive”; for `Cc1noc(C)c1NC(=O)N(C)C[C@@H]1Oc2c(NC(=O)Nc3cccc4ccccc34)cccc2C(=O)N([C@H](C)CO)C[C@H]1C`, “inactive”; for `C[C@@H]1CCCCO[C@H](CN(C)C(=O)C2CCCCC2)[C@H](C)CN([C@@H](C)CO)C(=O)c2cc(NC(=O)CCC(F)(F)F)ccc2O1`, “inactive”.
For the molecule `C[C@@H]1CN([C@H](C)CO)C(=O)c2cccc(NC(=O)Nc3ccccc3)c2O[C@H]1CN(C)Cc1ccc(-c2ccccc2)cc1`, the growth inhibition call was “inactive”.
As for `C[C@@H]1CCCCO[C@@H](CN(C)Cc2ccc(C(F)(F)F)cc2)[C@@H](C)CN([C@@H](C)CO)C(=O)c2cc(NS(C)(=O)=O)ccc2O1`, the growth inhibition call is “inactive”.
With `C[C@H]1CN([C@@H](C)CO)C(=O)c2cccc(NC(=O)c3ccncc3)c2O[C@H]1CN(C)S(=O)(=O)c1ccc(F)cc1` the entry was “inactive”; with `C[C@@H]1CN([C@@H](C)CO)C(=O)Cc2cc(NS(=O)(=O)c3ccccc3)ccc2O[C@@H]1CN(C)Cc1ccc2c(c1)OCO2`, “inactive”.
